In the supplement of paper PMC4967469:
A lower IC50 marks a more sensitive line; a fit beyond the top or the lowest dose is shown as a bound at that dose. The AUC spans the tested range (256-fold, ending at the top dose) of the same fit; the more sensitive the line, the further below 1. For some assays here: The top dose, if marked as inferred, comes from the curve model; the source does not state it. For some assays here: Drugs with an entry number were screened twice under separate entries, and the two screens often disagree.

Key:
Experiment in all cases: Viability of human cancer cell lines after 72 h of drug (GDSC screen)
Docetaxel = compound: CC(=O)O[C@@]12CO[C@@H]1C[C@H](O)[C@@]1(C)C(=O)[C@H](O)C3=C(C)[C@@H](OC(=O)[C@H](O)[C@@H](NC(=O)OC(C)(C)C)c4ccccc4)C[C@@](O)([C@@H](OC(=O)c4ccccc4)[C@H]21)C3(C)C [Docetaxel]; conditions: top dose 0.0125 µM
Procedure: (§1)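 Human cancer cell lines in 384-well plates, medium with 10% serum, drug for 72 h over a 256-fold dose range (nine 2-fold or five 4-fold steps up to the top dose). Adherent lines were fixed and stained with the nucleic acid dye Syto60, suspension lines read with resazurin; signal relative to control wells, capped at 0 and 100%. One two-parameter sigmoid per drug and line, fitted in a mixed model over all curves with the slope shared within a line.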

AMG-706 = compound: CC1(C)CNc2cc(NC(=O)c3cccnc3NCc3ccncc3)ccc21 [AMG-706]; conditions: top dose 2 µM; top dose inferred
Procedure: as §1

Cyclopamine = compound: CC1=C2C[C@H]3[C@@H](CC=C4C[C@@H](O)CC[C@@]43C)[C@@H]2CC[C@]12O[C@@H]1C[C@H](C)CN[C@H]1[C@H]2C [Cyclopamine]; conditions: top dose 16 µM; top dose inferred
Procedure: as §1

JNK Inhibitor VIII = compound: CCOc1nc(NC(=O)Cc2cc(OC)ccc2OC)cc(N)c1C#N [JNK Inhibitor VIII]; conditions: top dose 10 µM; top dose inferred
Procedure: as §1

NSC-207895 = compound: CN1CCN(c2ccc([N+](=O)[O-])c3no[n+]([O-])c23)CC1 [NSC-207895]; conditions: top dose 20 µM; top dose inferred
Procedure: as §1

FTI-277 = compound: COC(=O)[C@H](CCSC)NC(=O)c1ccc(NC[C@@H](N)CS)cc1-c1ccccc1 [FTI-277]; conditions: top dose 1.024 µM; top dose inferred
Procedure: as §1

YM155 = compound: COCC[n+]1c2c(n(Cc3cnccn3)c1C)C(=O)c1ccccc1C2=O [YM155]; conditions: top dose 5.12 µM
Procedure: as §1

NVP-TAE684 = compound: COc1cc(N2CCC(N3CCN(C)CC3)CC2)ccc1Nc1ncc(Cl)c(Nc2ccccc2S(=O)(=O)C(C)C)n1 [NVP-TAE684]; conditions: top dose 2 µM
Procedure: as §1

OSI-906 = compound: C[C@]1(O)C[C@@H](c2nc(-c3ccc4ccc(-c5ccccc5)nc4c3)c3c(N)nccn32)C1 [OSI-906]; conditions: top dose 2.56 µM; top dose inferred
Procedure: as §1

SB-715992 = compound: Cc1ccc(C(=O)N(CCCN)[C@@H](c2nc3cc(Cl)ccc3c(=O)n2Cc2ccccc2)C(C)C)cc1 [SB-715992]; conditions: top dose 0.128 µM; top dose inferred
Procedure: as §1

JQ1 = compound: Cc1sc2c(c1C)C(c1ccc(Cl)cc1)=N[C@@H](CC(=O)OC(C)(C)C)c1nnc(C)n1-2 [JQ1]
Procedure: as §1

Belinostat = compound: O=C(/C=C/c1cccc(S(=O)(=O)Nc2ccccc2)c1)NO [Belinostat]; conditions: top dose 20 µM; top dose inferred
Procedure: as §1

CGP-60474 = compound: OCCCNc1cc(-c2ccnc(Nc3cccc(Cl)c3)n2)ccn1 [CGP-60474]; conditions: top dose 0.256 µM; top dose inferred
Procedure: as §1

JNJ-26854165 = compound: c1ccc2c(CCNc3ccc(Nc4ccncc4)cc3)c[nH]c2c1 [JNJ-26854165]; conditions: top dose 10 µM
Procedure: as §1

[1] = top dose 1 µM, screen: GDSC drug entry 1218, top dose inferred
[2] = top dose 2.56 µM, screen: GDSC drug entry 163

Row | Cell Line | AUC (Docetaxel) | IC50 (Docetaxel) [nM] | AUC (AMG-706) | IC50 (AMG-706) [nM] | AUC (Cyclopamine) | IC50 (Cyclopamine) [nM] | AUC (JNK Inhibitor VIII) | IC50 (JNK Inhibitor VIII) [nM] | AUC (NSC-207895) | IC50 (NSC-207895) [nM] | AUC (FTI-277) | IC50 (FTI-277) [nM] | AUC (YM155) | IC50 (YM155) [nM] | AUC (NVP-TAE684) | IC50 (NVP-TAE684) [nM] | AUC (OSI-906) | IC50 (OSI-906) [nM] | AUC (SB-715992) | IC50 (SB-715992) [nM] | AUC (JQ1; [1]) | IC50 (JQ1; [1]) [nM] | AUC (JQ1; [2]) | IC50 (JQ1; [2]) [nM] | AUC (Belinostat) | IC50 (Belinostat) [nM] | AUC (CGP-60474) | IC50 (CGP-60474) [nM] | AUC (JNJ-26854165) | IC50 (JNJ-26854165) [nM]
1 | DEL (lymphoid neoplasm, suspension) | 0.977 | > 12.5 | 0.991 | > 2000 | 0.846 | 8200 | 0.994 | > 10000 | 0.974 | > 20000 | 0.967 | > 1020 | 0.016 | < 20 | 0.062 | < 7.81 | 0.994 | > 2560 | 0.744 | 33 | 0.939 | > 1000 | 0.82 | 1080 | 0.266 | 322 | 0.571 | 24 | 0.994 | > 10000
2 | DSH1 (bladder, adherent) | 0.878 | 11.7 | 0.989 | > 2000 | 0.989 | > 16000 | 0.953 | > 10000 | 0.94 | > 20000 | 0.978 | > 1020 | 0.075 | < 20 | 0.948 | > 2000 | 0.989 | > 2560 | 0.983 | > 128 | 0.971 | > 1000 | 0.629 | 357 | 0.309 | 375 | 0.855 | 191 | 0.72 | 2540
3 | EB2 (Burkitt lymphoma, suspension) | 0.99 | > 12.5 | 0.989 | > 2000 | 0.956 | > 16000 | 0.99 | > 10000 | 0.878 | 17000 | 0.985 | > 1020 | 0.023 | < 20 | 0.989 | > 2000 | 0.988 | > 2560 | 0.558 | 11.3 | 0.985 | > 1000 | 0.854 | 1730 | 0.308 | 384 | 0.965 | > 256 | 0.978 | > 10000
4 | EC-GI-10 (oesophagus, adherent) | 0.511 | 0.837 | 0.968 | > 2000 | 0.989 | > 16000 | 0.974 | > 10000 | 0.987 | > 20000 | 0.987 | > 1020 | 0.918 | > 5120 | 0.989 | > 2000 | 0.989 | > 2560 | 0.986 | > 128 | 0.988 | > 1000 | 0.989 | > 2560 | 0.821 | 11400 | 0.948 | > 256 | 0.923 | > 10000
5 | EKVX (lung adenocarcinoma, adherent) | 0.776 | > 12.5 | 0.947 | > 2000 | 0.955 | > 16000 | 0.965 | > 10000 | 0.97 | > 20000 | 0.957 | > 1020 | 0.103 | < 20 | 0.897 | > 2000 | 0.737 | 1710 | 0.955 | > 128 | 0.947 | > 1000 | 0.841 | > 2560 | 0.78 | > 20000 | 0.94 | > 256 | 0.901 | > 10000
6 | MOLM-13 (acute myeloid leukaemia, suspension) | 0.843 | 8.03 | 0.925 | > 2000 | 0.912 | > 16000 | 0.978 | > 10000 | 0.783 | 7870 | 0.981 | > 1020 | 0.021 | < 20 | 0.569 | 191 | 0.976 | > 2560 | 0.609 | 15.6 | – | – | – | – | 0.273 | 296 | 0.639 | 37.6 | 0.557 | 885
7 | NALM-6 (B-cell leukaemia, suspension) | 0.987 | > 12.5 | 0.988 | > 2000 | 0.841 | 8620 | 0.986 | > 10000 | 0.77 | 6420 | 0.991 | > 1020 | 0.015 | < 20 | 0.729 | 492 | 0.928 | > 2560 | 0.513 | 8.65 | – | – | – | – | 0.15 | 136 | 0.671 | 43.9 | 0.97 | > 10000
8 | OPM-2 (myeloma, suspension) | 0.994 | > 12.5 | 0.989 | > 2000 | 0.972 | > 16000 | 0.994 | > 10000 | 0.986 | > 20000 | 0.993 | > 1020 | 0.066 | < 20 | 0.61 | 236 | 0.889 | 1980 | 0.592 | 13.6 | – | – | – | – | 0.288 | 361 | 0.795 | 95.2 | 0.987 | > 10000
9 | VCaP (prostate, adherent) | 0.595 | 1.44 | 0.984 | > 2000 | 0.985 | > 16000 | 0.987 | > 10000 | 0.872 | > 20000 | 0.982 | > 1020 | 0.081 | < 20 | 0.589 | 221 | 0.447 | 114 | 0.855 | 109 | – | – | – | – | 0.171 | 119 | 0.779 | 109 | 0.728 | 2870
